# Reference: patent US20140086829A1 (BIOREC S A, published 2014)
# Numbering of substitutions follows the chain as printed.
# T1: human VEGF-A (Peprotech), isoform not stated (human, UniProt P15692-4 27-191, limits assumed)
# T1 sequence (looked up): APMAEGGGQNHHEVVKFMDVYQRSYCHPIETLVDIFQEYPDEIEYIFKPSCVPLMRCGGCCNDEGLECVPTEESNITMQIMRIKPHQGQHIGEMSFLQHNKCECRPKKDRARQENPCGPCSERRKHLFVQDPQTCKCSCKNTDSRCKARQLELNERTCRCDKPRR
# B1: scFv2-Fc L3H6 (Fc fusion)
# chain: QVQLVQSGAEVKKPGESLKISCKGSGYSFTSYWIGWVRQMPGKGLEWMGIIYPGDSDTRYSPSFQGQVTISADKSISTAYLQWSSLKASDTAMYYCARQGTHNRKIWGQGTMVTVSSAPQAKSSGSGSESKVDQAVVTQEPSLTVSPGGTVTLTCASSTGAVTSGNYPNWFQQRPGQPPRALIYSTSNKHSWTPARFSGSLLGGKAALTLSGAQPEDEAEYYCRLSYDLARPVFGGGTKLTVLGSRGGGGSGGGGSA[omitted - human IgG1 Fc with E283K (EU numbers)]
# B2: scFv2-Fc L3H5 (Fc fusion)
# chain: B1 chain with Q99L, G100V, T101H, H102R, N103Y, K105A
# B3: scFv2-Fc L3H7 (Fc fusion)
# chain: B1 chain with Q99P, G100Y, T101A, H102T, N103D, R104T, K105R
# Target: T1, human VEGF-A (Peprotech), isoform not …
# Test: cell-based or functional assay
row,Binder,"hemoglobin content of subcutaneous Matrigel pellets with 200 ng human VEGF and 100 µg of the molecule, C57Bl/6 mice"
1,B1,3 fold against scFv2-Fc 2H1 8.2
2,B2,3 fold against scFv2-Fc 2H1 8.2
3,B3,3 fold against scFv2-Fc 2H1 8.2
